The whole screen tested about 48,000 compounds, of which about 120 (0.25%) were called active. About 4% were inconclusive and are not listed. The call rests on the fitted dose curve; in most records, active means well fitted activation curve with a large enough effect; inconclusive means small, poorly fitted or top-dose-only effect, or another doubt; inactive means no such curve, though single readings can be large or run the other way. Some of the results follow.

The nature of the assay: Primary qHTS for Identification of Small Molecule Activators of Huntingtin-Antisense Promoter Activity. Further: nearly all actives have a fitted effect of over 55% in size. As to conditions: HEK293 HTT-AS promoter firefly luciferase reporter, 24 h; series mostly up to 57.5 µM; activity change, positive = activation: at the top concentration. The method in brief:
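Firefly luciferase signal from promoter-reporter HEK293 cells was scaled between vehicle (0%) and zero RLU (-100%). Compounds were tested at final concentrations of up to 57.5 uM over 24 h at 37 degrees C. PTC124 at 50 uM final served as control inhibitor.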
(In general: qHTS replaces the single test concentration by a dilution series.)
As to `Cc1cccc(Cn2c(=O)n(CC3CCC(C(=O)NC(C)C)CC3)c(=O)c3sccc32)c1` (configuration not stated), the “activity change, positive = activation” value is inactive: -11.3%.

Turning to `CSc1ccc(CCNC(=O)C2=C(C)C(=O)OC23CCCCC3)cc1`, the “activity change, positive = activation” value was inactive: -12.3%.

In the case of `CCC1NC(=O)c2cc(S(N)(=O)=O)c(Cl)cc2N1` (configuration not stated), the “activity change, positive = activation” value is inactive: -12.4%.

Regarding `Cc1nn(-c2ccccc2)c(OC(=O)c2cccc(Br)c2)c1S(=O)(=O)c1ccccc1`, the “activity change, positive = activation” value is inactive: -21.9%.

Consider `COc1ccccc1CN1CCC(CNS(=O)(=O)c2cc(-c3onc(C)c3C)ccc2OC)CC1`, for which the “activity change, positive = activation” value is inactive: -15.3%.

Consider `N#Cc1nc(-c2ccc(COc3ccccc3)o2)oc1NCc1cccnc1`, for which the “activity change, positive = activation” value is inactive: -20.7%.

As for `COC(=O)c1ccc(OCC2c3cc(OC)c(OC)cc3CCN2C(=O)c2ccccc2C)cc1` (configuration not stated), the “activity change, positive = activation” value is inactive: -22.8%.

Turning to `CC(=O)Oc1ccc(C2(c3ccc(OC(C)=O)cc3)C(=O)Nc3ccccc32)cc1`, the “activity change, positive = activation” value is inactive: -51.8%.

Regarding `Cc1ccc(-c2nnc(Nc3ccc(Br)cc3)c3ccccc23)cc1S(=O)(=O)NCC1CCCO1` (configuration not stated), the activity change, positive = activation is inactive: 10.8% [at 11.5 µM, percent change from vehicle, -100% = no light].

Consider `Cc1nc(N2CCCC2)c2c(C(=O)N3CCN(c4ccc(F)cc4)CC3)c(C)oc2n1`, for which the “activity change, positive = activation” value is inactive: -9.14%.

As for `Cc1cccc(N2CCN(C(=O)Cn3ncc4c3-c3cc(C)ccc3OC4)CC2C)c1` (configuration not stated), the “activity change, positive = activation” value was inactive: -34%.

For `Cc1ncc(COP(=O)(O)O)c(C=O)c1O`, the “activity change, positive = activation” value is inactive: -5.48%.

Turning to `CCOc1ccc(C(=O)NCc2nnnn2-c2ccc(C)c(C)c2)cc1OCC`, the “activity change, positive = activation” value is inactive: -9.19%.

Turning to `Cc1cc(C)c(NC(=O)CCN2C(=O)c3ccccc3Sc3ncccc32)c(C)c1`, the “activity change, positive = activation” value is inactive: -19.4%.

As to `Cc1ccc(-n2c(=O)c3ccc(C(=O)NCc4ccccc4Cl)cc3n(CC(=O)Nc3cccc(Cl)c3)c2=O)cc1`, the “activity change, positive = activation” value was inactive: -6.87%.

On to `Cc1nc2cc(C(=O)NCCC3=CCCCC3)ccc2n1-c1ccc(Br)cc1`, for which the “activity change, positive = activation” value is inactive: -8.39%.

With `CCc1nn(CC(=O)NCC(C)c2ccccc2)c(=O)c2cc3occc3n12` (configuration not stated), the “activity change, positive = activation” value is inactive: -13.2%.

`COC(=O)c1cc2c(cc1NC(=O)c1cnn(-c3ccccc3)c1-n1cccc1)OCO2`: the “activity change, positive = activation” value was inactive: 7.09%.

In the case of `CSc1nc(Nc2ccc(C)cc2C)cc(-c2ccccc2)n1`, the “activity change, positive = activation” value was inactive: -22.1%.

Turning to `CCOC(=O)CNC(=O)CSc1cn(CC(=O)N2CCCCCC2)c2ccccc12`, the “activity change, positive = activation” value is inactive: -17.4%.

As for `CN(Cc1ccccc1)C(=O)C1CCN(S(=O)(=O)c2ccc3c(c2)oc(=O)n3C)CC1`, the “activity change, positive = activation” value is inactive: -27.3%.

With `O=C1COc2ccc(-c3cc(-c4ccc(Cl)cc4)c4c(n3)-c3ccccc3OC4)cc2N1`, the “activity change, positive = activation” value was inactive: -12.6%.

Turning to `CCCCCNC(=O)c1ccc2c(c1)ncn2-c1cccc(C)c1`, the “activity change, positive = activation” value was inactive: -17.6%.

For `Cc1cccc(C(=O)Nc2nnc(S(=O)(=O)N(C)Cc3ccc(Cl)cc3)s2)c1`, the “activity change, positive = activation” value is inactive: -31.1%.

For the compound `Cc1ccc(C(=O)NCC(c2ccc3c(c2)OCO3)N2CCN(c3ccc(F)cc3)CC2)cc1` (configuration not stated), the “activity change, positive = activation” value is inactive: -39.8%.

For the compound `CCOc1ccccc1NC(=O)Cn1c(=O)n(Cc2nc(C)no2)c(=O)c2ccccc21`, the “activity change, positive = activation” value is inactive: -18.3%.

Take `Cc1ccccc1C(=O)Nc1ccccc1OCc1cc(=O)n2ccccc2n1`: the “activity change, positive = activation” value is inactive: -4.03%.

Regarding `CCN(CC)c1nc2c(S(=O)(=O)c3ccccc3)nnn2c2ccc(Cl)cc12`, the “activity change, positive = activation” value was inactive: -40.3%.

Take `CCOc1ccc(CCNC(=O)c2c(C)oc3ncn(CC(C)C)c(=O)c23)cc1`: the “activity change, positive = activation” value is inactive: -9.96%.

For the compound `Cc1n[nH]c(C)c1Cc1sc2c(c1C(=O)N1C[C@H](O)CO1)c(=O)n(C)c(=O)n2CC(C)C`, the “activity change, positive = activation” value is inactive: -15.5%.

In the case of `Cc1cccc(-c2nc(S(=O)(=O)c3ccc(Cl)cc3)c(N3CCCCCC3)o2)c1`, the “activity change, positive = activation” value was inactive: -7.97%.

Turning to `Cc1cccc(CS(=O)(=O)Cc2ccc(C(=O)NCc3ccccc3)o2)c1`, the “activity change, positive = activation” value was inactive: -20.2%.

With `Clc1ccccc1CNc1ncnc2c1nc1n2CCCC1`, the “activity change, positive = activation” value was inactive: -14.8%.

Consider `Cc1cc(C)cc(NC(=O)c2cc(C)nc3c2c(C)nn3-c2ccccc2)c1`, for which the “activity change, positive = activation” value is inactive: -7.51%.

Regarding `COc1cccc(-c2nc(SCC(=O)NCC3CCCO3)c(-c3ccc(C)cc3)[nH]2)c1` (configuration not stated), the “activity change, positive = activation” value is inactive: -17.5%.

With `COc1ccc(NC(=O)Cn2c(=O)n(CCC(C)C)c(=O)c3cccnc32)cc1Cl`, the “activity change, positive = activation” value is inactive: -29.6%.

`Cc1ccc(OCC(=O)N(Cc2ccc(Cl)cc2)Cc2ccco2)cc1C`: the “activity change, positive = activation” value was inactive: -18.9%.

Regarding `CCOc1ccc(NC(=O)c2cc3c(C)nn(-c4ccccc4)c3s2)cc1`, the “activity change, positive = activation” value was inactive: -20%.

Regarding `CC(C)NC(=O)C1CCC(Cn2c(=O)c3sccc3n(CC(=O)N3CCCC3)c2=O)CC1` (configuration not stated), the “activity change, positive = activation” value was inactive: -5%.

`COc1ccc(NC(=O)c2ccc3c(=O)n4nc(Nc5ccccc5C)sc4nc3c2)cc1Cl`: the “activity change, positive = activation” value was inactive: -11.2%.

Turning to `Cc1ccccc1Nc1cc(C(=O)NC2CCCC2)c2ccccc2n1`, the “activity change, positive = activation” value was inactive: -13.3%.

In the case of `C[C@]1(CO)CN(c2cc(C(=O)Nc3ccc4c(c3)-c3c(c(C(N)=O)nn3-c3ccc(F)cc3)CC4)c(Cl)cn2)C[C@@]1(C)CO`, the “activity change, positive = activation” value is inactive: -41.8%.

Consider `Cc1cccc(Cn2cc(/C=C(/C#N)C(=O)Nc3cccc(Cl)c3)c3ccccc32)c1`, for which the “activity change, positive = activation” value is inactive: -20.8%.

For `Cc1ccc(Cn2c(C(=O)O)c(CNC3CCCCC3)c3ccc(C)cc32)cc1`, the “activity change, positive = activation” value was inactive: -13.8%.

Take `CCN(C(=O)c1cc2c(=O)oc3ccccc3c2s1)c1ccc(C)c(C)c1`: the “activity change, positive = activation” value was inactive: 0.441%.

As to `Cc1c(CNC2CCC(C)CC2)c(C(=O)O)c(C)n1Cc1ccc(Cl)cc1` (configuration not stated), the “activity change, positive = activation” value was inactive: -17.2%.

As for `CCOC(=O)C(CC)Sc1ncnc2c1c(-c1ccccc1)cn2-c1ccc(OC)cc1` (configuration not stated), the “activity change, positive = activation” value is inactive: -13.7%.

The values are drawn from PubChem BioAssay AID1508624 (National Center for Advancing Translational Sciences (NCATS), 2021).
